Laboratory results published in PubChem BioAssay AID651820 (National Center for Advancing Translational Sciences (NCATS), 2012).
Out of some 340,000 compounds screened, about 12,000 (3.5%) were called active. The shares of active, inactive and inconclusive entries below differ from those in the screen. Calls come from the whole dose curve; as a rule, active = well fitted inhibition curve with a large enough effect; inconclusive = small, poorly fitted or top-dose-only effect, or another doubt; inactive = no such curve, though single readings can be large or run the other way. No potency is given beside an inconclusive call; the fits are too rough.

Assay: qHTS Assay for Inhibitors of Hepatitis C Virus (HCV)
Details: Huh7.5.1 HCVcc-Cre (HCVcc is cell-culture hepatitis C virus) infection, luciferase reporter, 44 h; series mostly up to 41.8 µM
Summary of the method: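 1,000 cells/well; 4 h culture; + compound; + HCVcc-Cre (~0.5 moi); 44 h; luciferase substrate, RT 15 min; read 15 sec.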
Potency is the fitted concentration of half-maximal effect; tags give direction and shape of the fitted curve.

Row | SMILES | Potency
1 | COc1cccc(/C=N/Nc2nc3ccccc3n3cnnc23)c1 | inactive
2 | C[C@H](NC(=O)c1nc[nH]c1C(=O)N[C@@H](C)c1ccccc1)c1ccccc1 | inconclusive [inhibitor, partial curve, poor fit]
3 | Cc1ccc(OP(N)(=O)Oc2ccc(C)cc2)cc1 | inactive
4 | CCOC(=O)c1cnn2c(C(F)(F)F)cc(-c3cn(C)nc3C)nc12 | inconclusive [inhibitor, partial curve]
5 | CN1CCN(C2Cc3cc(Cl)ccc3Sc3cc(F)ccc32)CC1 (stereo not drawn) | inconclusive [inhibitor, partial curve]
6 | Cc1ccc(C)c(CNc2ccc(S(=O)(=O)N3CCCCC3)cc2)c1 | active: 4.47 µM
7 | CC1Cc2ccccc2N1c1ncnc2c1nnn2Cc1ccccc1 (stereo not drawn) | active: 11.2 µM
8 | COc1ccc(CCNC(=O)c2nn(C)c3c2CS(=O)(=O)c2ccccc2-3)cc1OC | inconclusive [inhibitor, partial curve]
9 | CC(NC(=O)c1ccccc1NC(=O)CN1CCc2ccccc2C1)c1ccccc1 (stereo not drawn) | inconclusive [inhibitor, single point]
10 | COc1ccccc1NC(=O)c1ccc(-n2ccnc2)c([N+](=O)[O-])c1 | inactive
11 | O=C(O/N=C1\CCCc2ccccc21)C1CC1 | inconclusive [inhibitor, single point]
12 | O=[N+]([O-])c1ccc(-c2c(-c3ccccc3)ncc3cc(F)ccc23)cc1 | inconclusive [inhibitor, single point]
13 | CCCN(CCC)c1nc(C#N)nc(N(CCC)CCC)n1 | inconclusive [inhibitor, partial curve]
14 | Cc1[nH]c2c([N+](=O)[O-])cccc2c1C | inconclusive [inhibitor, single point]
15 | CCCCOc1ccc(CN=C(N)N)cc1Cl | active: 10 µM
16 | O=C(c1ccc2c(c1)OCO2)N1CCN(c2cccc(C(F)(F)F)c2)CC1 | inconclusive [inhibitor, single point]
17 | O=C(Cn1ncc2c3ccccc3n(Cc3ccccc3)c2c1=O)N1CCN(c2ccccn2)CC1 | inactive
18 | Cc1cc(-c2ccccc2)nc2cc(C(=O)NCc3ccco3)nn12 | inconclusive [inhibitor, partial curve]
19 | CC1CN(Cc2csc(-c3ccc(Cl)cc3)n2)CC(C)O1 (stereo not drawn) | active: 11.2 µM
20 | CCOc1ccccc1NC(=O)CCCNC(=O)Cn1cnc2sc(C)c(C)c2c1=O | inconclusive [inhibitor, partial curve, poor fit]
21 | O=C(CNS(=O)(=O)c1ccc(Cl)cc1)N1CCN(c2ccc(F)cc2)CC1 | inconclusive [inhibitor, single point]
22 | CC(C)(Oc1ccc(Cl)cc1)C(=O)N1CCN(c2ccccn2)CC1 | inactive
23 | Cc1nn(-c2ccc(F)cc2)c2sc(C(=O)N3CCCCCC3)cc12 | active: 14.1 µM
24 | Cn1nc(C(C)(C)C)cc1NC(=O)Nc1ccc(F)cc1F | inconclusive [inhibitor, single point]
25 | CC(C)CCOc1ccc(C(=O)O)cc1 | inactive

Row | SMILES | Potency
26 | O=C(NO)c1ccc(C(=O)N(C2CCCCC2)C2CCCCC2)cc1 | inconclusive [inhibitor, single point]
27 | COc1cccc(/C(C)=N/NS(=O)(=O)c2ccc(Cl)cc2)c1 | inconclusive [inhibitor, single point]
28 | CC(Cc1ccsc1)NCc1cn[nH]c1-c1ccc(F)cc1F (stereo not drawn) | inactive
29 | COc1ccccc1-n1c(O)c(C=NCc2ccc3c(c2)OCO3)c(=O)[nH]c1=O | inactive
30 | CCOC(=O)C(C)(C)N(Cc1ccc(C)cc1)S(=O)(=O)c1ccc(Cl)c([N+](=O)[O-])c1 | inconclusive [inhibitor, single point]
31 | CCCn1c(N)c(C(=O)CSc2nc(N)cc(=O)[nH]2)c(=O)n(C)c1=O | inactive
32 | O=C(N/N=C\c1ccc[nH]1)c1cncc(Br)c1 | inactive
33 | CCC(C)N(C)Cc1cccc(C2(O)CCN(S(=O)(=O)c3ccc(F)c(C)c3)CC2)c1 (stereo not drawn) | inconclusive [inhibitor, single point]
34 | Oc1ccc(N=Nc2c(O)ccc3ccccc23)cc1 | active: 14.1 µM
35 | O=C(Nc1ccc(Oc2cccc(C(F)(F)F)c2)nc1)c1ccccc1 | inconclusive [inhibitor, single point]
36 | O=C(/C=C/c1cc[n+](CC(=O)c2ccc3cccc4c3c2CC4)cc1)c1ccc2cccc3c2c1CC3 | active: 6.31 µM
37 | O=C(C1CCC1)N1CCc2cc(S(=O)(=O)Nc3ccc4c(c3)OCCO4)ccc21 | inconclusive [inhibitor, single point]
38 | CS(=O)(=O)N(CC(=O)N1CCc2ccccc2C1)c1ccc(Br)cc1 | inactive
39 | CCOC(=O)c1c(NC(=O)Cn2nc(C(F)(F)F)cc2C)sc2c1CCC2 | inconclusive [inhibitor, full curve]
40 | CN(C(=O)CCl)C1CCCc2ccccc21 (stereo not drawn) | inconclusive [inhibitor, single point]
41 | CCCSc1nc(C)c(C(C)=O)cc1C#N | inconclusive [inhibitor, full curve]
42 | O=C(NCc1ccco1)c1nc2c(nnn2Cc2ccccc2Cl)c(=O)[nH]1 | inconclusive [inhibitor, partial curve]
43 | CCOC(=O)Nc1ccc2c(c1)N(C(=O)CCN(C)C)c1ccccc1S2 | active: 12.6 µM
44 | CN(C)c1ccc(Nc2c3c4c(cccc4n(C)c2=O)C(=O)c2ccccc2-3)cc1 | inconclusive [inhibitor, single point]
45 | Cn1c(=O)c2c(ncn2CCOc2cccc(Br)c2)n(C)c1=O | inconclusive [inhibitor, partial curve]
46 | O=C(OC1C2CCC1C1CN(CCc3ccccc3)CC12)c1ccccc1 (stereo not drawn) | inactive
47 | CC1CCN(S(=O)(=O)c2ccc(C(=O)NCc3ccc4c(c3)OCO4)cc2)CC1 | inactive
48 | CCOCN(C(=O)CCl)c1c(C)cccc1CC | inconclusive [inhibitor, single point]
49 | CN1C(=O)C(Cl)(Cl)C(=O)c2ccccc21 | inactive
50 | CCOc1cc(NC(=O)c2ccccn2)c(OCC)cc1NC(=O)c1ccccc1 | inactive

Row | SMILES | Potency
51 | CCOC(=O)C1CCN(c2c(NCc3ccc(C(=O)NC(C)CC)cc3)c(=O)c2=O)CC1 (stereo not drawn) | inconclusive [inhibitor, single point]
52 | NC(=NC(=O)c1ccc(Cl)cc1)N1N=CCC1c1ccccc1 (stereo not drawn) | inconclusive [inhibitor, partial curve]
53 | CCc1ccc(O)c(-c2cc(C(=O)Nc3cccnc3)[nH]n2)c1 | inconclusive [inhibitor, single point]
54 | O=C(COC(=O)c1ccc([N+](=O)[O-])o1)c1ccccc1 | inactive
55 | COc1cc(NC(=O)COc2ccc(Cl)cc2)ccc1-c1cc2ccccc2oc1=O | inconclusive [inhibitor, partial curve, poor fit]
56 | CCOc1ccccc1NC(=O)C(Sc1nnc2ccccn12)c1ccccc1 (stereo not drawn) | inconclusive [inhibitor, partial curve]
57 | Cc1ccc(CN(C)C(=O)c2cccc(S(=O)(=O)N3CCN(c4ccccc4)CC3)c2)cc1 | inconclusive [inhibitor, single point]
58 | Cc1ccc2oc(=O)c(-c3ccc(O)cc3)c(C)c2c1 | inactive
59 | COc1cc(CN2CCCC(C(=O)c3sccc3C)C2)cc(OC)c1O (stereo not drawn) | inactive
60 | O=C(O)C1=C[C@@H](c2ccc(F)cc2)C[C@@H](OCCCCO)O1 | inactive
61 | C=CCn1nc([N+](=O)[O-])nc1Sc1cccc2cccnc12 | inconclusive [inhibitor, partial curve]
62 | CCCCc1nc(NCCNC(=O)c2ccccc2)c(C#N)c2c1CSC(C)(C)C2 | inconclusive [inhibitor, single point]
63 | NC(=O)c1ccc(NC(=O)CSc2nncn2-c2ccccc2)cc1 | inactive
64 | CNc1c2cccc(C)c2nc2c(C(=O)NCCN(C)C)cccc12 | active: 1.41 µM
65 | C=CCN1C(=O)C(CC(=O)NCC)SC1=Nc1ccccc1OC (stereo not drawn) | inactive
66 | COc1ccc(-c2oc3cccnc3c2C#CC2(O)CCCCC2)cc1 | inconclusive [inhibitor, single point]
67 | O=c1[nH]c(=S)n(CCC2=CCCCC2)c(O)c1C=NC1CCN(Cc2ccccc2)CC1 | inconclusive [inhibitor, partial curve]
68 | CCN(CC)C1CCN(C(=O)c2ccc(OC3CCN(CCc4ccccc4)CC3)cc2)C1 (stereo not drawn) | active: 7.08 µM
69 | COc1ccc(-c2c[n+]3c(n2-c2ccc(C)cc2)CCCCC3)cc1 | inconclusive [inhibitor, full curve, poor fit]
70 | CC(=O)c1cccc(NC(=O)Cn2cnc(S(=O)(=O)N3CCc4ccccc43)c2)c1 | inconclusive [inhibitor, single point]
71 | Cc1sc(NC(=O)c2ccccc2)c(C(=O)NC(C)C)c1C | inconclusive [inhibitor, full curve]
72 | O=C(/C=C\c1cn(-c2ccccc2)nc1-c1ccc2c(c1)OCCO2)N1CCOCC1 | inconclusive [inhibitor, single point]
73 | COC(=O)C1=C(c2ccc3ccccc3c2)C[C@@H]2CC[C@H]1N2C(=O)N1CCCCC1 | active: 7.94 µM
